# Data as given in the supplement of paper PMC10369915.
# The other results are listed elsewhere or left out. Rule as the data show it: active = 3.2 or more and inactive = the rest. The signal is at background level for most entries.
# What was measured:
# Test in all cases: enrichment score (SH2-bound / input frequency) (ratio); bacterial display of known human phosphotyrosine sites (pTyr-Var adds point mutants) read by sequencing; higher = stronger binding; tyrosines were phosphorylated by kinases first
# Conditions in all cases: peptide library: pTyr-Var
# SHP2 C-SH2 domain E139D = target: SHP2 C-SH2 domain E139D
# [1] = target: SHP2 C-SH2 domain wild-type
# SHP2 N-SH2 domain L43F = target: SHP2 N-SH2 domain L43F
# SHP2 N-SH2 domain T42A = target: SHP2 N-SH2 domain T42A
# SHP2 N-SH2 domain T52S = target: SHP2 N-SH2 domain T52S
# [2] = target: SHP2 N-SH2 domain wild-type
# 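Also: displayed peptides selected on beads carrying the immobilized SH2 domain, with library peptides lacking any tyrosine serving as negative controls.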
Binder,enrichment score (SHP2 C-SH2 domain E139D),enrichment score [1],enrichment score (SHP2 N-SH2 domain L43F),enrichment score (SHP2 N-SH2 domain T42A),enrichment score (SHP2 N-SH2 domain T52S),enrichment score [2]
WPLKWYAPECI [ZAP70_Y506],inactive: 1.22,inactive: 1.56,inactive: 1.68,inactive: 1.35,inactive: 1.35,inactive: 1.55
WPLKWYVPECI [ZAP70_Y506_A507V],inactive: 2.24,inactive: 1.76,inactive: 1.85,inactive: 1.71,inactive: 1.54,inactive: 2.16
CPPELYALMSD [ZAP70_Y569],inactive: 0.984,inactive: 0.985,inactive: 1.55,inactive: 1.71,inactive: 1.5,inactive: 2.37
LLRLAYLADIF [ZBED5_Y476],active: 4.1,active: 3.27,active: 3.78,inactive: 2.73,active: 4.52,active: 3.62
KACKHYLTTRT [ZBTB5_Y118],active: 3.48,active: 3.2,active: 3.29,inactive: 2.7,active: 3.69,inactive: 2.66
KACKHYLTKRT [ZBTB5_Y118_T121K],active: 4.46,active: 4.03,active: 3.87,active: 3.59,active: 4.22,active: 3.25
TVLEPYADPYY [ZC3H18_Y367],inactive: 1.49,inactive: 0.835,inactive: 0.929,inactive: 0.693,inactive: 1.11,inactive: 1.22
TVLEPYTDPYY [ZC3H18_Y367_A368T],inactive: 0.4,inactive: 0.476,inactive: 0.53,inactive: 0.428,inactive: 0.407,inactive: 0.494
TVLEPYTDPFF [ZC3H18_Y367_A368T_YF],inactive: 0.881,inactive: 0.744,inactive: 1.9,inactive: 1.72,inactive: 2.05,inactive: 0.835
TVLEPYADPFF [ZC3H18_Y367_YF],inactive: 0.548,inactive: 0.534,inactive: 0.639,inactive: 0.749,inactive: 0.713,inactive: 0.753
PYADPYYDYEI [ZC3H18_Y371],inactive: 0.908,inactive: 0.986,inactive: 0.628,inactive: 0.696,inactive: 1.01,inactive: 0.795
PYTDPYYDYEI [ZC3H18_Y371_A368T],inactive: 0.615,inactive: 0.685,inactive: 0.7,inactive: 0.657,inactive: 0.839,inactive: 0.683
PFTDPYFDFEI [ZC3H18_Y371_A368T_YF],inactive: 1.1,inactive: 0.755,inactive: 0.883,inactive: 0.864,inactive: 0.781,inactive: 1.2
YTDPYYDYEIE [ZC3H18_Y372_A368T],inactive: 0.819,inactive: 0.851,inactive: 0.97,inactive: 0.76,inactive: 0.704,inactive: 0.817
FADPFYDFEIE [ZC3H18_Y372_YF],inactive: 0.693,inactive: 0.65,inactive: 0.737,inactive: 0.564,inactive: 0.672,inactive: 0.778
VLALWYFFLTN [ZDHHC23_Y127_H132N_YF],inactive: 2.92,inactive: 2.94,inactive: 2.57,inactive: 2.77,inactive: 1.96,inactive: 3.12
VMLENYSNLLS [ZFP69_Y109_V113L],inactive: 1.31,inactive: 1.21,inactive: 1.15,inactive: 1.2,inactive: 1.11,inactive: 0.964
APRKVYDTQDD [ZFPL1_Y215_R218Q],inactive: 0.378,inactive: 0.486,inactive: 0.412,inactive: 0.424,inactive: 0.529,inactive: 0.621
DVQNEYDSNHC [ZFYVE16_Y36_A35E],inactive: 0.452,inactive: 0.404,inactive: 0.407,inactive: 0.369,inactive: 0.457,inactive: 0.49

Binder,enrichment score (SHP2 C-SH2 domain E139D),enrichment score [1],enrichment score (SHP2 N-SH2 domain L43F),enrichment score (SHP2 N-SH2 domain T42A),enrichment score (SHP2 N-SH2 domain T52S),enrichment score [2]
SYSGEYGSGGG [ZG16_Y30_G32S],inactive: 0.48,inactive: 0.447,inactive: 0.534,inactive: 0.496,inactive: 0.429,inactive: 0.661
PLTKVYVVEGS [ZMPSTE24_Y253],inactive: 0.453,inactive: 0.39,inactive: 0.555,inactive: 0.436,inactive: 0.71,inactive: 0.512
LLTKVYVVEGS [ZMPSTE24_Y253_P248L],inactive: 1.24,inactive: 1.04,inactive: 0.906,inactive: 0.907,inactive: 0.813,inactive: 1.2
VFGEEYEEQPR [ZMYM2_Y1033],inactive: 0.822,inactive: 0.565,inactive: 0.599,inactive: 0.626,inactive: 0.795,inactive: 0.734
MDDPRYGMCPL [ZNF100_Y6],inactive: 0.711,inactive: 0.882,inactive: 0.823,inactive: 0.697,inactive: 0.557,inactive: 0.978
QFFQSYFNNNF [ZNF236_Y644],inactive: 1.53,inactive: 1.28,inactive: 1.54,inactive: 1.43,inactive: 1.12,inactive: 1.3
QISSNYDDAMQ [ZNF281_Y531],inactive: 0.794,inactive: 0.7,inactive: 0.666,inactive: 0.724,inactive: 0.596,inactive: 0.74
TGEKLYQRKEF [ZNF283_Y627],inactive: 0.606,inactive: 0.593,inactive: 0.59,inactive: 0.65,inactive: 0.584,inactive: 0.629
TGEKLYQHKEF [ZNF283_Y627_R629H],inactive: 0.841,inactive: 0.83,inactive: 0.77,inactive: 0.616,inactive: 0.658,inactive: 0.769
MSSHHYDYKKY [ZNF445_Y428],inactive: 0.618,inactive: 0.537,inactive: 0.488,inactive: 0.573,inactive: 0.66,inactive: 0.56
MSSHHCDYKKY [ZNF445_Y428_Y428C],inactive: 2.31,inactive: 1.68,inactive: 1.83,inactive: 1.53,inactive: 2.09,inactive: 1.65
YDYKKYGKGLR [ZNF445_Y433],inactive: 1.35,inactive: 1.42,inactive: 1.26,inactive: 1.39,inactive: 1.52,inactive: 1.22
CDFKKYGKGLR [ZNF445_Y433_Y428C_YF],inactive: 0.886,inactive: 1.07,inactive: 0.834,inactive: 0.704,inactive: 0.771,inactive: 0.997
SGEKPYKCSEC [ZNF543_Y283],inactive: 0.458,inactive: 0.472,inactive: 0.598,inactive: 0.626,inactive: 0.685,inactive: 0.456
AQRKLYRNVML [ZNF569_Y33],inactive: 0.919,inactive: 0.615,inactive: 0.789,inactive: 0.649,inactive: 0.709,inactive: 0.785
AERKLYRNVML [ZNF569_Y33_Q29E],inactive: 1.13,inactive: 0.803,inactive: 0.985,inactive: 0.706,inactive: 0.894,inactive: 0.764
GKTFTYHSVFF [ZNF80_Y200_R201H],inactive: 1.33,inactive: 1.63,inactive: 1.53,inactive: 2.9,inactive: 1.91,inactive: 1.62
SQINLYQDVML [ZNF806_Y33_A28S],inactive: 0.966,inactive: 0.884,inactive: 0.86,inactive: 0.862,inactive: 1.04,inactive: 1.03
